{
  "source": "paper PMC12136788",
  "binders": {"B1": {"name": "chr10:73917138:73917420:+|3pUTR|ENSG00000122861|msi1|FALSE|unique (ssRNA)", "RNA": "GGGAGUUCUACAGUCCGACGAUCGGAAUGUAUUAUUCUGCAGCAUGACCUGUGACCAGCACUGUCUCAGUUUCACUUUCACAUAGAUGUCCCUUUCUUGGCCAGUUAUCCCUUCCUUUUAGCCUAGUUCAUCCAAUCCUCACUCAACAGAGGAUUGAGCAUCA"}, "B2": {"name": "chr2:1632407:1632508:-|3pUTR|ENSG00000130508|msi1|FALSE|unique (ssRNA)", "RNA": "GGGAGUUCUACAGUCCGACGAUCUUGGUAAGUGAUUGAUAAAAAUUGGUUGGUGUUUCAUGACAUGUGGACUUCUUUUGAAAUAGCAAGUCAAAUGUAGUGACCAAAUUGUGGAAGAGAUUUCUGUCAAAUAGGAAAUGUGUACAACAGAGGAUUGAGCAUCA"}, "B3": {"name": "chr1:10469171:10469279:-|CDS|ENSG00000160049|unk|total|mutant (ssRNA)", "RNA": "GGGAGUUCUACAGUCCGACGAUCGUGGAUGAUGACGAUUACUUUCUGUGUCUACCUUCCAAUACUAAGUUUGUGGCAUUGGCCCGUAAUGAGAAAUGGGCAUACAACAAUUCAGGUAAGAAACUCCCGCCAUGUAUAAAACGGCAACAGAGGAUUGAGCAUCA"}, "B4": {"name": "chr11:113738268:113738383:-|CDS|ENSG00000086827|unk|FALSE|unique (ssRNA)", "RNA": "GGGAGUUCUACAGUCCGACGAUCUGCUUUUUGGCCCAAAUGCGGGCACAGAAAGGUGAACUUCUGGAAAGAUUAUCAAGUGCUAGGAACUUUUCAAAUAUGGACGAUGAAGAGAAUUAUUCUGCAGCAAGUAAAGCAGUCCGGCAACAGAGGAUUGAGCAUCA"}, "B5": {"name": "chr19:44386474:44388102:-|CDS|ENSG00000267508|control|control|control (ssRNA)", "RNA": "GGGAGUUCUACAGUCCGACGAUCGGCAUGUGGUAAGGGCUUCAGUCGUAAUUCAUACCUCCUUGCCCAUCAGAGAGUGCAUAUAGAUGAGACACAGUACACACACUGUGAGCGUGGAAAGGACCUUCUGACUCAUCAAAGACUCAACAGAGGAUUGAGCAUCA"}, "B6": {"name": "chr1:180885316:180885399:+|3pUTR|ENSG00000143324|msi1_unk|FALSE|overlapping (ssRNA)", "RNA": "GGGAGUUCUACAGUCCGACGAUCUUGGCAGCCAUUUCUCCCAGCAGUUUUAAAGGAUGAACAUUGGAUUUCAUGCCAUCCCAUAGAAAACCUGUUUUAAAAUUUUAGGGAUCUUUACUUGGUCAUACAUGAAAAGUACACUGCCAACAGAGGAUUGAGCAUCA"}, "B7": {"name": "chr10:103999120:103999255:+|CDS|ENSG00000065613|unk|FALSE|unique (ssRNA)", "RNA": "GGGAGUUCUACAGUCCGACGAUCAUCUAAGGACAGACCCUAUGACUACAAAGCUGAUGUUUGGUCCCUGGGUAUCACUUUAAUAGAAAUGGCUGAGAUAGAACCACCUCAUCAUGAAUUAAAUCCAAUGCGAGUGCUGCUAAACAACAGAGGAUUGAGCAUCA"}, "B8": {"name": "chr4:4235611:4235720:-|3pUTR|ENSG00000132406|unk|total|mutant (ssRNA)", "RNA": "GGGAGUUCUACAGUCCGACGAUCAUGACCGUUUUGUCCGGUGACAGGACCAAAUGAAAAUAUUUUAUGUUUUCUCAUCACUUCCGAUUUUAUCAUUAUGUACAUUACUGGGUUUUCCGCAUUUCCUAAUGUGAAGUUUUAAUCCAACAGAGGAUUGAGCAUCA"}, "B9": {"name": "chr1:205790044:205790145:-|3pUTR|ENSG00000133065|msi1|FALSE|bound_elsewhere (ssRNA)", "RNA": "GGGAGUUCUACAGUCCGACGAUCAGAUUCUUCUGCCUCUUUCUCCUUUCCAGACCCCUACUCUGUGCAGUGCUGACCACAGCUAGAGCCACCGCCCCAUUGCUCAACCAGUAUUUAUUUCCCUAAACGACCCUUCCUCACAUUCAACAGAGGAUUGAGCAUCA"}, "B10": {"name": "chr7:128862928:128863052:+|CDS|ENSG00000128524|unk|total|mutant (ssRNA)", "RNA": "GGGAGUUCUACAGUCCGACGAUCUAAGCUCAUCGCAGUGAUCGGAGACGAGGACACGGUGACUGGUUUCCUGCUGGGCGGCACCGGGGAGCUUAACAAGAACCGCCAUCCCAAUUUCCUGGUGGUGGAGAAGGAUACAACCAUCAACAGAGGAUUGAGCAUCA"}, "B11": {"name": "chr2:111862450:111862553:-|CDS|ENSG00000153107|unk|total|mutant (ssRNA)", "RNA": "GGGAGUUCUACAGUCCGACGAUCUCUUUUUCAGGGGUGCAAAGGUUCAACAUUUCAAGCCAUAAUCAGUCUCCAAAGAGACACCGUAUUUCUCAUUCUCCAAACCGUAAUUCUAAUGGCUCCUUUCUUGCACCAGAAACGGAGCAACAGAGGAUUGAGCAUCA"}, "B12": {"name": "ENSG00000198589:be:win_8101|CDS|ENSG00000198589|bound_else_gene|NA|bound_elsewhere_windowed (ssRNA)", "RNA": "GGGAGUUCUACAGUCCGACGAUCGUGUUGAGUGGUUCACAAGAAGGACCAUGUCUCAUACAUUCCAUGAAUGGAGACUUGUUGAGGACCUUGGAGGGUCCUGAAAACUGCCUGAAACCAAAACUCAUUCAGGCUUCAAGAGAGCAACAGAGGAUUGAGCAUCA"}, "B13": {"name": "chr17:18931026:18931127:+|3pUTR|ENSG00000141127|msi1|total|mutant (ssRNA)", "RNA": "GGGAGUUCUACAGUCCGACGAUCGAUACCUGCAAUUGAAAAGCCGAAAAGAUUAUACUGUCAAGUCCAGUAAAUGACAUUUUCCGAGAUGCUUUUGCCGACAAGCAUAUGGAAUAUGUGAUUGUAUUUAUUUUCUGCAACUAACAACAGAGGAUUGAGCAUCA"}, "B14": {"name": "chr14:53951422:53951790:-|three_prime_utr|ENSG00000125378|control|control|control (ssRNA)", "RNA": "GGGAGUUCUACAGUCCGACGAUCUUUGGAGACAGAGGGGGAGGUGUUCAGGGGAAGGGGAAUGACAGCACUCAGACGUGGGCUAGCCCCAGCGGUGUGUUUUUGCUAUAUCAAAGCCUUUUCUGCUAGGUUUUCUGCCCGUUUCAACAGAGGAUUGAGCAUCA"}},
  "note": "The other results are listed elsewhere or left out.",
  "data": [
    {"biological_target": "MSI1 full-length (mouse, UniProt Q61474 1-362)", "sequence (Q61474 whole entry)": "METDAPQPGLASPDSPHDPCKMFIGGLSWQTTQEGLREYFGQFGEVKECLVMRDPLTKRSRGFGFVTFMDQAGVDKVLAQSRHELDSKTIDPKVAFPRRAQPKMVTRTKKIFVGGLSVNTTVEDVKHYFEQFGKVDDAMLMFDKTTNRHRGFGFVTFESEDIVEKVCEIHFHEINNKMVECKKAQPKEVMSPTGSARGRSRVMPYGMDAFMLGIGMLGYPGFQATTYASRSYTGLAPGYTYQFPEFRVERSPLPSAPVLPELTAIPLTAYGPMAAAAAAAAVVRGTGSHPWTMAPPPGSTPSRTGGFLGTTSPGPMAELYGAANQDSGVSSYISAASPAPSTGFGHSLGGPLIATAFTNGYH", "assay": "nsRBNS (natural sequence RNA bind-n-seq); RBNS binding buffer (assumed for nsRBNS): 25 mM Tris pH 7.5, 150 mM KCl, 3 mM MgCl2, 0.01% Triton X-100, 500 ug/ml BSA, 20 U/ml SUPERase-In, 4 C; UNK is unkempt and MSI1 is Musashi-1; names of the RNAs are library labels; protein concentration not given here; high values mean tight binding", "units": {"binding signal": "enrichment R"}, "values": [
      {"binder": "B1", "binding signal": 2.41},
      {"binder": "B2", "binding signal": 3.01},
      {"binder": "B3", "binding signal": 0.527},
      {"binder": "B4", "binding signal": 0.479},
      {"binder": "B5", "binding signal": 0.494},
      {"binder": "B6", "binding signal": 0.583},
      {"binder": "B7", "binding signal": 0.522},
      {"binder": "B8", "binding signal": 0.581},
      {"binder": "B9", "binding signal": 1.33},
      {"binder": "B10", "binding signal": 0.398},
      {"binder": "B11", "binding signal": 0.402},
      {"binder": "B12", "binding signal": 0.257},
      {"binder": "B13", "binding signal": 0.356},
      {"binder": "B14", "binding signal": 0.64}
    ]}
  ]
}
